Among all 310,000 compounds or so, about 18,000 (5.8%) were called active. The shares of active, inactive and inconclusive entries below differ from those in the screen. Calls come from the whole dose curve; as a rule, active = well fitted inhibition curve with a large enough effect; inconclusive = small, poorly fitted or top-dose-only effect, or another doubt; inactive = no such curve, though single readings can be large or run the other way. No potency is given beside an inconclusive call; the fits are too rough.
Assay: Primary qHTS for delayed death inhibitors of the malarial parasite plastid, 48 hour incubation
Conditions: P. falciparum luciferase growth in erythrocytes; series mostly up to 28.7 µM
Procedure, shortened: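 First compound was added to culture medium, then infected red cells at 0.1% parasitemia and 2% hematocrit (final). After incubation at 37 C under 5% CO2, luciferase detection reagent was dispensed and light output recorded.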
With CCOC(=O)c1c(NC(=O)C(C)Sc2cn(C)c3ccccc23)sc2c1CCC2 (centres undefined) the Potency was inconclusive [inhibitor, single point]. For CC(C)(C)NC(=O)NC(=O)CN1CCN(S(=O)(=O)/C=C/c2ccccc2)CC1, the Potency was inconclusive [inhibitor, partial curve, poor fit]. For C/C(=C(/CCO)SSCC1CCCO1)N(C=O)Cc1cnc(C)nc1N (centres undefined), the Potency was inconclusive [inhibitor, single point]. In the case of COc1ccc(C(=O)Nc2ccccc2C(=O)Nc2cccnc2)cc1, the Potency is reported as “inactive”. For COc1cc(C(=O)NC2CCCc3ccccc32)cc(OC)c1OC (centres undefined), the Potency was inconclusive [inhibitor, full curve, poor fit]. In the case of COc1ccc(C(=O)COC(=O)/C=C/c2ccco2)cc1F, the Potency is reported as “inactive”. With COc1ccc(-c2cc(C(F)F)n3ncc(C(=O)Nc4cnn(Cc5ccccc5)c4)c3n2)cc1 the Potency was inconclusive [inhibitor, partial curve, poor fit]. For CC(C)(C)c1ccc(C(=O)N2CCC(=O)N(C(CO)Cc3ccccc3)CC2)cc1 (centres undefined), the Potency was “inactive”. In the case of Cc1ccc(OCC(=O)NCCCNC(=O)c2cnccn2)cc1C, the Potency is reported as inconclusive [inhibitor, partial curve, poor fit]. In the case of O=S1(=O)N=C(N/N=C/c2ccc(Br)o2)c2ccccc21, the Potency is reported as inconclusive [inhibitor, single point]. For CN1CCN(c2ccccc2NC(=O)C(Cc2ccccc2)n2cccc2)CC1 (centres undefined), the Potency was active: 10.4 µM. For Cc1ccc(NC(=O)CCCNC(=O)c2ccc(Cl)cc2)c(O)c1, the Potency was “inactive”. With NS(=O)(=O)c1ccc(NC(=O)c2cc(-c3cc(Cl)ccc3O)n[nH]2)cc1 the Potency was inconclusive [inhibitor, single point]. With O=C(CCCSc1ccc(Cl)cc1)Nc1ccccc1O the Potency was “inactive”. In the case of COc1cccc(/C=C2/SC(=O)N(C)C2=O)c1OCc1ccc(C(=O)O)cc1, the Potency is reported as “inactive”. With COCc1cc(=O)n2[nH]cc(-c3ccsc3)c2n1 the Potency was “inactive”. In the case of COC(=O)c1[nH]c2cccc(Cl)c2c1NC(=O)CN(C)C1CCCCC1, the Potency is reported as inconclusive [inhibitor, partial curve, poor fit]. With COc1ccc(N2CCN(C3CCCN(S(=O)(=O)c4ccc(C)cc4C)C3)CC2)cc1 (centres undefined) the Potency was inconclusive [inhibitor, partial curve]. In the case of C/C(=N\NC(=O)c1cc(O)ccc1O)c1cccc(NC(=O)c2cccc(Cl)c2)c1, the Potency is reported as “inactive”. For CC1SC(=S)N(c2ccc(N(C)C)cc2)C1=O (centres undefined), the Potency was inconclusive [inhibitor, full curve, poor fit]. With COc1ccc(CCC(=O)OCC(=O)Nc2ccccc2)cc1 the Potency was “inactive”. In the case of COc1ccc(-n2nc3c(c2NC(=O)CCl)CSC3)cc1, the Potency is reported as active: 0.738 µM. With COc1cccc(CNC(=O)CCCc2nnc3n(C)c(=O)c4sccc4n23)c1 the Potency was inconclusive [inhibitor, single point]. With COC(=O)c1ccc(C)c(NC(=O)CCc2cc(OC)c(OC)c(OC)c2)c1 the Potency was “inactive”. In the case of Cc1nn(-c2ccc(C(=O)O)cc2)c(C)c1Cl, the Potency is reported as “inactive”. With COc1ccc(-c2cc(C(=O)N3CCN(c4ccccc4F)CC3)c3ccccc3n2)c(OC)c1 the Potency was inconclusive [inhibitor, full curve]. In the case of COc1cc(/C=C2/SC(=S)N(Cc3ccccc3)C2=O)cc(Cl)c1O, the Potency is reported as inconclusive [inhibitor, single point]. In the case of CCOc1ccc(/C=N/NC(=O)C(C)N(c2ccc(OC)cc2)S(C)(=O)=O)cc1OCC (centres undefined), the Potency is reported as inconclusive [inhibitor, partial curve, poor fit]. In the case of CCc1ccc(NC(=O)C2CCCN(S(=O)(=O)c3cccs3)C2)cc1 (centres undefined), the Potency is reported as inconclusive [inhibitor, single point]. With CCc1c2ccccc2nn1-c1ccccc1C(=O)C(C)=O the Potency was inconclusive [inhibitor, full curve, poor fit]. In the case of COCCNC(=O)c1ccc(N2CC3CC(C2)c2cccc(=O)n2C3)c(NC(=O)c2c(F)cccc2F)c1 (centres undefined), the Potency is reported as inconclusive [inhibitor, partial curve, poor fit]. In the case of CCOCCN1CCN(c2c3c(nc4cc(-c5ccc(F)cc5)nn24)CCC3)CC1, the Potency is reported as inconclusive [inhibitor, partial curve, poor fit]. For Cc1ccc(C(=O)c2cnc3ccccc3c2-c2ccccc2)cc1, the Potency was active: 13.1 µM. In the case of COc1cc(-c2noc(-c3cccs3)n2)cc(OC)c1OC, the Potency is reported as inconclusive [inhibitor, partial curve]. In the case of CN1C2CCC1/C(=C\c1ccc(F)cc1)C(=O)/C2=C/c1ccc(F)cc1, the Potency is reported as active: 0.828 µM. With CN(CC(=O)Nc1cccc(F)c1)C(=O)CC1CCCCC1 the Potency was inconclusive [inhibitor, partial curve, poor fit]. In the case of Cc1nn(-c2ccc(Cl)cc2)c2sc(C(=O)N3CCN(c4ccccn4)CC3)cc12, the Potency is reported as “inactive”. With Cc1ccc(-c2cc([C@H]3[C@@H]4C=CCC[C@@]4(C)C(=O)N3Cc3ccccc3)ccc2F)cc1 the Potency was inconclusive [inhibitor, single point]. With Cc1cccc(NC(=O)c2ccc(S(=O)(=O)N3CCCCCC3)cc2)n1 the Potency was inconclusive [inhibitor, partial curve, poor fit]. With CC(C)CCOc1ccc(CO[C@@H]2[C@H]3OC(C)(C)O[C@H]3O[C@@H]2C(O)CO)cc1 (some centres undefined) the Potency was inconclusive [inhibitor, partial curve, poor fit]. For Clc1ccccc1-c1nnc2n1-c1ccccc1SC2, the Potency was inconclusive [inhibitor, full curve, poor fit]. In the case of C[C@H]1C(=O)N(C)CCN1Cc1cn(C)nc1-c1ccc(Oc2ccccc2)cc1, the Potency is reported as inconclusive [inhibitor, partial curve]. For O=C(CCC1CCCCC1)NCc1ccc(F)cc1, the Potency was “inactive”. With Cc1ccc(S(=O)(=O)N2CCN(c3ccc([N+](=O)[O-])c(Sc4nncn4C)c3)CC2)cc1 the Potency was inconclusive [inhibitor, full curve, poor fit].
Potency is the fitted concentration of half-maximal effect; tags give direction and shape of the fitted curve.
